Reference: the supplement of paper PMC12217912
The other results are listed elsewhere or left out. The full chains were built here from the parent and the listed change. Values near 0.05 are background.

B1: TEV protease; numbered along this chain (parent)
chain: MGESLFKGPRDYNPISSSICHLTNESDGHTTSLYGIGFGPFIITNKHLFRRNNGTLVVQSLHGVFKVKDTTTLQQHLVDGRDMIIIRMPKDFPPFPQKLKFREPQREERICLVTTNFQTKSMSSMVSDTSCTFPSGDGIFWKHWIQTKDGQCGSPLVSTRDGFIVGIHSASNFTNTNNYFTSVPKNFMELLTNQEAQQWVSGWRLNADSVLWGGHKVFMVKPEEPFQPVKEATQL

Variants of: B1
Assay: raw area under fraction-flipped curve 0-4 h after induction (AUC4h, not background-subtracted), DNA-recorder readout of cleavage of the substrate (dimensionless); higher = more cleavage of the substrate by the protease variant
Conditions: temperature: 34 °C; time window: 0-4 h after rhamnose induction
Procedure: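 In vivo DNA recorder in E. coli TOP10(DE3) ΔrhaA at 34 °C. Each TEVp single-site mutant (parent TEVp 0) is paired with a single-site variant of the 7-mer TEVs (canonical ENLYFQ|S). The substrate sits between flexible linkers in a Bxb1-sfGFP-TEVs-SsrA fusion, so cleavage stabilises Bxb1 and speeds flipping of a recombination array, read by NGS. The value is the raw area under the fraction-flipped curve over 0-4 h after rhamnose induction (AUC4h), with ≥20 reads per time point. It is not background-subtracted; inactive controls average about 0.047.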
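Note: Bxb1 expression induced with 0.2% (w/v) L-rhamnose at OD600 near 0.5, cultures sampled hourly, flipped fraction per protease–substrate barcode pair counted by paired-end Illumina sequencing.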

Variant	area with substrate ENLAFQS	area with substrate ENLDFQS	area with substrate ENLEFQS	area with substrate ENLIFQS	area with substrate ENLLFQS	area with substrate ENLNFQS	area with substrate ENLFFQS	area with substrate ENLHFQS	area with substrate ENLKFQS	area with substrate ENLMFQS	area with substrate ENLWFQS	area with substrate ENLCFQS	area with substrate ENLGFQS	area with substrate ENLPFQS	area with substrate ENLQFQS	area with substrate ENLRFQS	area with substrate ENLSFQS	area with substrate ENLVFQS	area with substrate ENLTFQS
MGYSLFKGPRDYNPISSSICHLTNESDGHTTSLYGIGFGPFIITNKHLFRRNNGTLVVQSLHGVFKVKDTTTLQQHLVDGRDMIIIRMPKDFPPFPQKLKFREPQREERICLVTTNFQTKSMSSMVSDTSCTFPSGDGIFWKHWIQTKDGQCGSPLVSTRDGFIVGIHSASNFTNTNNYFTSVPKNFMELLTNQEAQQWVSGWRLNADSVLWGGHKVFMVKPEEPFQPVKEATQL [E3Y]	0.0703	0.063	0.0539	0.0579	0.0639	0.0452													
MGESLFKMPRDYNPISSSICHLTNESDGHTTSLYGIGFGPFIITNKHLFRRNNGTLVVQSLHGVFKVKDTTTLQQHLVDGRDMIIIRMPKDFPPFPQKLKFREPQREERICLVTTNFQTKSMSSMVSDTSCTFPSGDGIFWKHWIQTKDGQCGSPLVSTRDGFIVGIHSASNFTNTNNYFTSVPKNFMELLTNQEAQQWVSGWRLNADSVLWGGHKVFMVKPEEPFQPVKEATQL [G8M]	0.0778					0.0647	0.0766	0.0596	0.0575	0.064	0.0594								
MGESLFKGPRDANPISSSICHLTNESDGHTTSLYGIGFGPFIITNKHLFRRNNGTLVVQSLHGVFKVKDTTTLQQHLVDGRDMIIIRMPKDFPPFPQKLKFREPQREERICLVTTNFQTKSMSSMVSDTSCTFPSGDGIFWKHWIQTKDGQCGSPLVSTRDGFIVGIHSASNFTNTNNYFTSVPKNFMELLTNQEAQQWVSGWRLNADSVLWGGHKVFMVKPEEPFQPVKEATQL [Y12A]	0.0544	0.0732	0.0645	0.0729		0.0647	0.0833	0.0726	0.0674	0.0685	0.0692	0.0807	0.0826	0.0588	0.0832	0.0871	0.0696	0.105	
MGESLFKGPRDINPISSSICHLTNESDGHTTSLYGIGFGPFIITNKHLFRRNNGTLVVQSLHGVFKVKDTTTLQQHLVDGRDMIIIRMPKDFPPFPQKLKFREPQREERICLVTTNFQTKSMSSMVSDTSCTFPSGDGIFWKHWIQTKDGQCGSPLVSTRDGFIVGIHSASNFTNTNNYFTSVPKNFMELLTNQEAQQWVSGWRLNADSVLWGGHKVFMVKPEEPFQPVKEATQL [Y12I]	0.067	0.0644	0.0623	0.0775	0.0729	0.0626	0.0812	0.0648	0.0687	0.0786	0.04	0.0897	0.0667	0.0432	0.0632	0.0554			0.0693
MGESLFKGPRDQNPISSSICHLTNESDGHTTSLYGIGFGPFIITNKHLFRRNNGTLVVQSLHGVFKVKDTTTLQQHLVDGRDMIIIRMPKDFPPFPQKLKFREPQREERICLVTTNFQTKSMSSMVSDTSCTFPSGDGIFWKHWIQTKDGQCGSPLVSTRDGFIVGIHSASNFTNTNNYFTSVPKNFMELLTNQEAQQWVSGWRLNADSVLWGGHKVFMVKPEEPFQPVKEATQL [Y12Q]	0.0606	0.0528	0.0582	0.0607	0.0815	0.0635	0.105	0.102	0.0672	0.0848	0.0734		0.0388	0.0517		0.0703	0.0517	0.0399	
MGESLFKGPRDYCPISSSICHLTNESDGHTTSLYGIGFGPFIITNKHLFRRNNGTLVVQSLHGVFKVKDTTTLQQHLVDGRDMIIIRMPKDFPPFPQKLKFREPQREERICLVTTNFQTKSMSSMVSDTSCTFPSGDGIFWKHWIQTKDGQCGSPLVSTRDGFIVGIHSASNFTNTNNYFTSVPKNFMELLTNQEAQQWVSGWRLNADSVLWGGHKVFMVKPEEPFQPVKEATQL [N13C]	0.0697	0.064	0.0642	0.0892	0.0823	0.0666	0.0915	0.0557	0.0748	0.0726	0.071	0.0726		0.0935	0.0708	0.0623	0.063	0.0815	
MGESLFKGPRDYQPISSSICHLTNESDGHTTSLYGIGFGPFIITNKHLFRRNNGTLVVQSLHGVFKVKDTTTLQQHLVDGRDMIIIRMPKDFPPFPQKLKFREPQREERICLVTTNFQTKSMSSMVSDTSCTFPSGDGIFWKHWIQTKDGQCGSPLVSTRDGFIVGIHSASNFTNTNNYFTSVPKNFMELLTNQEAQQWVSGWRLNADSVLWGGHKVFMVKPEEPFQPVKEATQL [N13Q]	0.0617	0.0566	0.0595	0.0846		0.056	0.0909	0.0631	0.0729	0.0584	0.0649	0.0784	0.0688	0.0606	0.0757	0.0722	0.0473	0.0884	
MGESLFKGPRDYNPFSSSICHLTNESDGHTTSLYGIGFGPFIITNKHLFRRNNGTLVVQSLHGVFKVKDTTTLQQHLVDGRDMIIIRMPKDFPPFPQKLKFREPQREERICLVTTNFQTKSMSSMVSDTSCTFPSGDGIFWKHWIQTKDGQCGSPLVSTRDGFIVGIHSASNFTNTNNYFTSVPKNFMELLTNQEAQQWVSGWRLNADSVLWGGHKVFMVKPEEPFQPVKEATQL [I15F]	0.0746	0.0657	0.0666		0.0738	0.0654	0.0716	0.0594	0.0733		0.062	0.0687	0.0756	0.0535	0.064	0.071	0.0624		
MGESLFKGPRDYNPNSSSICHLTNESDGHTTSLYGIGFGPFIITNKHLFRRNNGTLVVQSLHGVFKVKDTTTLQQHLVDGRDMIIIRMPKDFPPFPQKLKFREPQREERICLVTTNFQTKSMSSMVSDTSCTFPSGDGIFWKHWIQTKDGQCGSPLVSTRDGFIVGIHSASNFTNTNNYFTSVPKNFMELLTNQEAQQWVSGWRLNADSVLWGGHKVFMVKPEEPFQPVKEATQL [I15N]	0.0563	0.0594	0.061			0.0516	0.0725	0.0593	0.0505	0.0576	0.0476	0.0748		0.0715	0.0573	0.0462	0.0549	0.0814	
